# Measurements as given in PubChem BioAssay (NCATS).
# Several values for one entry are separate records, joined by “and”; a condition that tells them apart may be missing. Equal entries are not always repeated. Inconclusive means that the source gave no clear call. Such entries were picked first, then a sample of the others. A potency beside an inconclusive call is a rough fit, not a confirmed value. Where a structure was tested more than once in an assay, its records may differ in their call. Activity calls are given as the source filed them. The call rests on the fitted dose curve; in most records, active means well fitted activation curve with a large enough effect; inconclusive means small, poorly fitted or top-dose-only effect; inactive means no such curve, though single readings can be large or run the other way.
# Molecular target: Cellular tumor antigen p53 (Homo sapiens) (UniProt P04637)
# Assay: Primary qHTS for small molecule compounds that upregulate eGFP-tagged delta133p53alpha (in N-terminal) cells. (AID 2060322); further: nearly all actives have a fitted effect of over 75% in size;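 on activation: series mostly up to about 56 µM; 0% = DMSO vehicle and 100% = reference activator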
# Settings: NCI-H358 eGFP-delta133p53alpha fluorescence, 24 h; activation: stronger effect = higher value
# Method in brief: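 NCI-H358 cells pre-induced 24 h with 10 ng/ml doxycycline to express N-terminal eGFP-delta133p53alpha, then dosed 24 h at 37C without doxycycline; fixed, Hoechst-stained, GFP intensity by laser scanning cytometry, normalized to DMSO (0%) and 57.5 uM 5-azacytidine (100%).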
# Potency means the concentration at half of the fitted maximal effect; tags describe the fitted curve by direction and shape.
# Chain of UniProt P04637 (P04637 whole entry, looked up): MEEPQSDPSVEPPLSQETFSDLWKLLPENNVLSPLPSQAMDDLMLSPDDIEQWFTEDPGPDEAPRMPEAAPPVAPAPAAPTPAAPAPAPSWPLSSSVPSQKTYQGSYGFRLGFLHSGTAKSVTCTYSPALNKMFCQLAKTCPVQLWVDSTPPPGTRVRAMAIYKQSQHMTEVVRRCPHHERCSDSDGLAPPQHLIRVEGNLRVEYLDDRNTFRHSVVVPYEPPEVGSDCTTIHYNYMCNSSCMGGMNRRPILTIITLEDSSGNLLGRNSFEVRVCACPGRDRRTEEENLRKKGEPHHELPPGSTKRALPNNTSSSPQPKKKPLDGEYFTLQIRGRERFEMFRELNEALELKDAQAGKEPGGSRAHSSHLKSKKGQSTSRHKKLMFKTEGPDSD
SMILES,Potency,activation
Cc1csc(-c2nnc(Nc3ccc(Oc4ncccc4-c4ccnc(N)n4)cc3)c3ccccc23)c1,"inconclusive: 15.3 µM [activator, partial curve, poor fit]",inactive: 19.6%
OC1(c2ccc(Cl)cc2)CCNCC1,,inactive: -8.47%
C[C@H](Cc1ccc(O)c(O)c1)[C@@H](C)Cc1ccc(O)c(O)c1,"inconclusive: 19.3 µM [activator, single point]",inactive: 8.19%
CC#C[C@]1(O)CC[C@H]2[C@@H]3CCC4=CC(=O)CCC4=C3[C@@H](c3ccc(N(C)C)cc3)C[C@@]21C,"inconclusive: 17.4 µM [activator, single point] and inconclusive: 3.79 µM [activator, full curve, poor fit]",inactive: 7.02%
COc1cc2c(Oc3ccc(-c4cnc(Nc5ccc(F)cc5)n(C)c4=O)cc3F)ccnc2cc1OCCCN1CCOCC1,"inconclusive: 0.485 µM [activator, full curve, poor fit]",inactive: 11.5%
COc1ccc(CCN(C)CCCC(C#N)(c2ccc(OC)c(OC)c2)C(C)C)cc1OC (stereo unspecified),"inconclusive: 24.6 µM [activator, single point]",inactive: -12.4% and inactive: 7.69%
C1COC(NC(C2CC2)C2CC2)=N1,"inconclusive: 1.35 µM [activator, full curve, poor fit]",inactive: 11% and inactive: 4.18%
CC[C@@]1(O)C(=O)OCc2c1cc1n(c2=O)Cc2c-1nc1ccccc1c2/C=N/OC(C)(C)C,active: 0.0978 µM,
Cc1nc2c(-c3cnc(N)nc3)nc(N3CCOCC3)nc2n1C(C)C,active: 9.66 µM,inactive: 14.3%
CS(=O)(=O)N1CCN(Cc2cc3nc(-c4cccc5[nH]ncc45)nc(N4CCOCC4)c3s2)CC1,"inconclusive: 7.69 µM [activator, partial curve, poor fit]",inactive: -25.9%
CCOc1ccc2nc3cc(N)ccc3c(N)c2c1,"inconclusive: 3.47 µM [activator, single point]",
COC(=O)C1=C(C)NC(C)=C(C(=O)OCCCN2CCC(c3ccccc3)(c3ccccc3)CC2)C1c1cccc([N+](=O)[O-])c1 (stereo unspecified),"inconclusive: 19.5 µM [activator, single point]",inactive: 2.93%
CN(C)[C@@H](CCOc1cccc2ccccc12)c1ccccc1,"inconclusive: 34.7 µM [activator, single point]",inactive: 8.7%
O=C(NCc1ccccc1)c1csc(Nc2ccncn2)n1,"inconclusive: 37.9 µM [activator, single point]",inconclusive: 30.6% [activator]
C[C@H]1O[C@@H](n2cc(F)c(=O)[nH]c2=O)[C@H](O)[C@@H]1O,"inconclusive: 0.195 µM [activator, full curve]",inactive: 2.35%
CNCCC(Oc1ccc(C(F)(F)F)cc1)c1ccccc1 (stereo unspecified),"inconclusive: 27.6 µM [activator, partial curve, poor fit]",
c1ccc2c(CCNc3ccc(Nc4ccncc4)cc3)c[nH]c2c1,active: 30.6 µM,inactive: -5.73%
O=C(OCc1ccccc1O[C@@H]1O[C@H](CO)[C@@H](O)[C@H](O)[C@H]1O)C1(O)C=CCCC1O (stereo partly specified),,inactive: -2.29%
